This experiment concerns the target human recombinant P2X7 receptor (Homo sapiens (Human), UniProt Q99572). Description: YO-PRO1 assay, P2X7 receptor antagonistic activity. The following applies: HEK-293 cells expressing human recombinant P2X7 receptor; YO-PRO-1 fluorescence; ATP 250 μM for 90 minutes.
Chain of UniProt Q99572 (Q99572 whole entry): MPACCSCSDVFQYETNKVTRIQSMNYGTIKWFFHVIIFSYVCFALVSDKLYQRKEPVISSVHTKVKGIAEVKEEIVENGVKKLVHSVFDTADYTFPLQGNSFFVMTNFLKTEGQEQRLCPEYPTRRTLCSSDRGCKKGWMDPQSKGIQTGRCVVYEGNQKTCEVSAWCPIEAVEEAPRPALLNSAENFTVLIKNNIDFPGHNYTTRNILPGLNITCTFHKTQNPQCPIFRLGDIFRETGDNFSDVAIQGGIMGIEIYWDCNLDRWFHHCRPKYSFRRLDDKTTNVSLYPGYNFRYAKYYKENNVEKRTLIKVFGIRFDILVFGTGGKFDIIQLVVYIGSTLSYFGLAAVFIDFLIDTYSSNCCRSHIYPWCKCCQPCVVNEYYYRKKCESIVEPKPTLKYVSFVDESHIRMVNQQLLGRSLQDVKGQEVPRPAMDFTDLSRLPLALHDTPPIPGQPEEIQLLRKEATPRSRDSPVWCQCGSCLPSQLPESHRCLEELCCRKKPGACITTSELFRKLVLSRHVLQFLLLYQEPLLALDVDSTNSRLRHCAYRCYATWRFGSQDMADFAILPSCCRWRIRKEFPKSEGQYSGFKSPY

For `COc1cc(C(=O)NCC2(O)CCC(F)(F)CC2)c(C)c2cc[nH]c12` [Example 77, 7-Methoxy-4-methyl-1H-indole-5-carboxylic acid (4,4-difluoro-1-hydroxy-cyclohexylmethyl)-amide], the IC50 – broadly, the concentration needed to halve the response being measured – is 0.021 µM.

Take `COc1cc(C(=O)NCC2(O)CCCCC2)c(C)c2cc[nH]c12` [Example 78, 7-Methoxy-4-methyl-1H-indole-5-carboxylic acid (1-hydroxy-cyclohexylmethyl)-amide]: the IC50 worked out at 0.021 µM.

Take `CCOc1cc(C(=O)NCC2(O)CCCCC2)c(Cl)c2cc[nH]c12` [Example 79, 4-Chloro-7-ethoxy-1H-indole-5-carboxylic acid (1-hydroxy-cyclohexylmethyl)-amide]: the IC50 came out at 0.0061 µM.

Regarding `O=C(NCC1(O)CCC(F)(F)CC1)c1cc(O)c2[nH]ccc2c1Cl` [Example 80, 4-Chloro-7-hydroxy-1H-indole-5-carboxylic acid (4,4-difluoro-1-hydroxy-cyclohexylmethyl)-amide], the half-inhibitory concentration (IC50) was 0.1 µM.

As for `CCOc1cc(C(=O)NCC2(O)CCC(F)(F)CC2)c(Cl)c2cc[nH]c12` [Example 81, 4-Chloro-7-ethoxy-1H-indole-5-carboxylic acid (4,4-difluoro-1-hydroxy-cyclohexylmethyl)-amide], the IC50 came out at 0.0054 µM.

As to `CCCc1cc(C(=O)NCC2(O)CCCCC2)c(Cl)c2cc[nH]c12` [Example 82, 4-Chloro-7-propyl-1H-indole-5-carboxylic acid (1-hydroxy-cyclohexylmethyl)-amide], the IC50 was found to be 0.0038 µM.

For `CCCc1cc(C(=O)NCC2(O)CCC(F)(F)CC2)c(Cl)c2cc[nH]c12` [Example 83, 4-Chloro-7-propyl-1H-indole-5-carboxylic acid (4,4-difluoro-1-hydroxy-cyclohexylmethyl)-amide], the 50% inhibitory concentration (IC50) was 0.0033 µM.

`CC(C)(C)OCCOc1cc(C(=O)NCC2(O)CCCCC2)c(Cl)c2cc[nH]c12` [Example 84, 7-(2-tert-Butoxy-ethoxy)-4-chloro-1H-indole-5-carboxylic acid (1-hydroxy-cyclohexylmethyl)-amide]: the IC50 came out at 0.025 µM.

As for `CC(C)(C)OCCOc1cc(C(=O)NCC2(O)CCC(F)(F)CC2)c(Cl)c2cc[nH]c12` [Example 85, 7-(2-tert-Butoxy-ethoxy)-4-chloro-1H-indole-5-carboxylic acid (4,4-difluoro-1-hydroxy-cyclohexylmethyl)-amide], the IC50 is 0.03 µM.

As for `O=C(NCC1(O)CCCCC1)c1cc(OCCO)c2[nH]ccc2c1Cl` [Example 86, 4-Chloro-7-(2-hydroxy-ethoxy)-1H-indole-5-carboxylic acid (1-hydroxy-cyclohexylmethyl)-amide], the concentration for half-maximal inhibition (IC50) was determined as 0.0067 µM.

On to `O=C(NCC1(O)CCC(F)(F)CC1)c1cc(OCCO)c2[nH]ccc2c1Cl` [Example 87, 4-Chloro-7-(2-hydroxy-ethoxy)-1H-indole-5-carboxylic acid (4,4-difluoro-1-hydroxy-cyclohexylmethyl)-amide], for which the IC50 turned out to be 0.0073 µM.

For the compound `CC(=O)c1cc(C(=O)NCC2(O)CCCCC2)c(Cl)c2cc[nH]c12` [Example 88, 7-Acetyl-4-chloro-1H-indole-5-carboxylic acid (1-hydroxy-cyclohexylmethyl)-amide], the IC50 amounted to 0.025 µM.

For `CC(C)(O)c1cc(C(=O)NCC2(O)CCCCC2)c(Cl)c2cc[nH]c12` [Example 89, 4-Chloro-7-(1-hydroxy-1-methyl-ethyl)-1H-indole-5-carboxylic acid (1-hydroxy-cyclohexylmethyl)-amide], the IC50 amounted to 0.0083 µM.

Take `O=C(NCC1(O)CCCCC1)c1cc(F)c2[nH]ccc2c1F` [Example 90, 4,7-Difluoro-1H-indole-5-carboxylic acid (1-hydroxy-cyclohexylmethyl)-amide]: the 50% inhibitory concentration (IC50) is 0.563 µM.

`O=C(NCC1(O)CCC(F)(F)CC1)c1cc(F)c2[nH]ccc2c1F` [Example 91, 4,7-Difluoro-1H-indole-5-carboxylic acid (4,4-difluoro-1-hydroxy-cyclohexylmethyl)-amide]: the IC50 was 0.701 µM.

Turning to `COc1cc(C(=O)NCC2(O)CCCCC2)c(F)c2cc[nH]c12` [Example 92, 4-Fluoro-7-methoxy-1H-indole-5-carboxylic acid (1-hydroxy-cyclohexylmethyl)-amide], the IC50 came out at 0.045 µM.

Consider `COc1cc(C(=O)NCC2(O)CCC(F)(F)CC2)c(F)c2cc[nH]c12` [Example 93, 4-Fluoro-7-methoxy-1H-indole-5-carboxylic acid (4,4-difluoro-1-hydroxy-cyclohexylmethyl)-amide], for which the concentration for half-maximal inhibition (IC50) amounted to 0.07 µM.

Take `CCOCCc1cc(C(=O)NCC2(O)CCC(F)(F)CC2)c(Cl)c2cc[nH]c12` [Example 94, 4-Chloro-7-(2-ethoxy-ethyl)-1H-indole-5-carboxylic acid (4,4-difluoro-1-hydroxy-cyclohexylmethyl)-amide]: the IC50 was 0.0094 µM.

For the compound `COC(C)(C)c1cc(C(=O)NCC2(O)CCC(F)(F)CC2)c(Cl)c2cc[nH]c12` [Example 95, 4-Chloro-7-(1-methoxy-1-methyl-ethyl)-1H-indole-5-carboxylic acid (4,4-difluoro-1-hydroxy-cyclohexylmethyl)-amide], the IC50 is 0.0093 µM.
